Measured values: patent US7160888B2, “[1,8]naphthyridin-2-ones and related compounds for the treatment of schizophrenia” (Warner Lambert Company LLC, priority 2003, dated 2007)

Tests used:
dopamine D2 receptor [1] = target: T1, dopamine D2 receptor (Homo sapiens, UniProt P14416); settings: read-out: D2 Ki; Table 1; 0.4 nM [3H]spiperone, CHO-hD2L membranes
dopamine D2 receptor [2] = target: T1, dopamine D2 receptor; experiment: biochemical; settings: D2 Ki (nM), Table 1; 0.4 nM [3H]spiperone, CHO-hD2L membranes

T1 sequence (P14416 whole entry): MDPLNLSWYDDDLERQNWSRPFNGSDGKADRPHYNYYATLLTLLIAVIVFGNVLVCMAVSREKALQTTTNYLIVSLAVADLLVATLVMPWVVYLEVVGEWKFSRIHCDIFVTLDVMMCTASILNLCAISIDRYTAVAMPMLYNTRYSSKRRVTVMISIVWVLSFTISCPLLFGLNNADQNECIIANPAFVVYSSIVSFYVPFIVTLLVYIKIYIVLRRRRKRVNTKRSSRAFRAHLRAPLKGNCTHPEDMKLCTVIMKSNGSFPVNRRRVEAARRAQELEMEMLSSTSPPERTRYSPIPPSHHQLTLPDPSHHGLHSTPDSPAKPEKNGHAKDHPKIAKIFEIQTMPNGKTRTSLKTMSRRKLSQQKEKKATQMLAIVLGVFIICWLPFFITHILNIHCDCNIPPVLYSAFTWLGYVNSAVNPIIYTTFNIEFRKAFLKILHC

Row | SMILES | Ki (dopamine D2 receptor [1]) [nM] | Ki (dopamine D2 receptor [2]) [nM]
1 | COc1cccc(N2CCN(CCCCOc3ccc4c(n3)NC(=O)CC4)CC2)c1C [Example A24, 7-{4-[4-(3-Methoxy-2-methyl-phenyl)-pierazin-1-yl]-butoxy}-3,4-dihydro-1H-[1,8]naphthyridin-2-one] | 16.5 | 
2 | O=C1COc2ccc(OCCCCN3CCN(c4cccc5c4CCCC5)CC3)nc2N1 [Example G8, 6-{4-[4-(5,6,7.8-Tetrahydro-naphthalen-1-yl)-piperazin-1-yl]-butoxy}-4H-pyrido[3,2-b][1,4]oxazin-3-one] | 1 | 
3 | COC(=O)c1c(OCCCCN2CCN(c3cccc4ccccc34)CC2)ncc2c1NC(=O)CC2 [Example I11, 7-[4-(4-Naphthalen-1-yl-piperazin-1-yl)-butoxy]-2-oxo-1,2,3,4-tetrahydro-[1,6]naphthyridine-8-carboxylic acid methyl ester] |  | 8.7
4 | O=c1ccc2cnc(OCCCCN3CCN(c4cccc5c4CCCC5)CC3)cc2[nH]1 [Example I14, 7-{4-[4-(5,6,7,8-Tetrahydro-naphthalen-1-yl)-piperazin-1-yl]-butoxy}-1H-[1,6]naphthyridin-2-one] |  | 3.5
5 | O=c1ccc2cnc(OCCCCN3CCN(c4cccc5c4CCC5)CC3)cc2[nH]1 [Example I15, 7-[4-(4-Indan-4-yl-piperazin-1-yl)-butoxy]-1H-[1,6]naphthyridin-2-one] |  | 2.5
6 | O=c1ccc2cnc(OCCCCN3CCN(c4cccc5ccccc45)CC3)cc2[nH]1 [Example I16, 7-[4-(4-Naphthalen-1-yl-piperazin-1-yl)-butoxy]-1H-[1,6]naphthyridin-2-one] |  | 2.1
7 | O=c1ccc2cnc(OCCCCN3CCN(c4cccc5ccc(F)cc45)CC3)cc2[nH]1 [Example I17, 7-{4-[4-(7-Fluoro-naphthalen-1-yl)-piperazin-1-yl]-butoxy}-1H-[1,6]naphthyridin-2-one] |  | 1
8 | O=c1ccc2cnc(NCCCCN3CCN(c4cccc(Cl)c4Cl)CC3)cc2[nH]1 [Example I18, 7-{4-[4-(2,3-Dichloro-phenyl)-piperazin-1-yl]-butylamino}-1H-[1,6]naphthyridin-2-one] |  | 1.6
9 | CC1(C)OC(=O)Nc2cc(CCCCCN3CCN(c4cccc(Cl)c4Cl)CC3)ncc21 [Example I19, 7-{5-[4-(2,3-Dichloro-phenyl)-piperazin-1-yl]-pentyl}-4,4-dimethyl-1,4-dihydro-pyrido[4,3-d][1,3]oxazin-2-one] |  | 7.5

Where two headings read alike, the source gives them in different places.
